# Laboratory results reported in PubChem BioAssay AID651820 (National Center for Advancing Translational Sciences (NCATS), 2012).
# The whole screen tested about 340,000 compounds, of which about 12,000 (3.5%) were called active. The inconclusive results got no clear call from the source; some entries with a clear call stand among them for comparison. Calls come from the whole dose curve; as a rule, active = well fitted inhibition curve with a large enough effect; inconclusive = small, poorly fitted or top-dose-only effect, or another doubt; inactive = no such curve, though single readings can be large or run the other way. Potencies of inconclusive entries are left out as doubtful fits.
# Experiment: qHTS Assay for Inhibitors of Hepatitis C Virus (HCV)
# Conditions: Huh7.5.1 HCVcc-Cre (HCVcc is cell-culture hepatitis C virus) infection, luciferase reporter, 44 h; activity change, negative = inhibition: at 41.8 µM (top of the series) unless noted
# In short: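 Whole-lifecycle infectious HCVcc-Cre system; cells 1,000/well, compound then virus (~0.5 moi) added 4 h after plating, 44 h culture. Luciferase read 15 sec following 15 min substrate incubation, room temp.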
# % is set by controls: 0 for no effect and ±100 for the full control effect; potency is the fitted concentration of half-maximal effect; tags give direction and shape of the fitted curve.
SMILES,Potency,"activity change, negative = inhibition"
COC(=O)c1sc(NC(=O)/C=C/c2ccccc2Cl)nc1C,active: 5.62 µM,–
Cc1nc(SCC(=O)Nc2cc(C)on2)c2c3c(sc2n1)CCCC3,"inconclusive [inhibitor, partial curve]",–
O=C(Cc1ccc([N+](=O)[O-])cc1)N1CCCc2ccccc21,"inconclusive [inhibitor, single point]",–
N#Cc1cc(O)c(-n2nnc3ccccc32)cc1C#N,inactive,–
CC1=NN(C(=O)c2ccncc2)C(=O)C1N=Nc1ccc2ccccc2c1 (stereo not given),"inconclusive [inhibitor, partial curve]",–
COc1cc(OC)cc(C(=O)NCC(=O)OCC(=O)Nc2ccc(C)c(S(=O)(=O)N3CCOCC3)c2)c1,inactive,–
Cc1cc(C)n(-c2ccc(C(=O)Nc3ccc(C)c(S(=O)(=O)N(C)C)c3)cc2)n1,active: 10 µM,–
CCOC(=O)c1c(CN2CCOCC2)n(-c2ccccc2)c2cc(Br)c(O)c(CN(C)C)c12,"inconclusive [inhibitor, partial curve, poor fit]",–
COc1cc(Cl)c(C)cc1NC(=O)CNC(C)c1ccccc1OC (stereo not given),"inconclusive [inhibitor, partial curve]",–
Cc1ccc(C(=O)N/C(=C\c2ccc(Cl)cc2)C(=O)NCCCN2CCOCC2)cc1,"inconclusive [inhibitor, single point]",–
CC(=NCCc1c(C)[nH]c2ccc(OC(F)(F)F)cc12)C1=C(O)CC(c2ccccc2)CC1=O (stereo not given),"inconclusive [inhibitor, full curve]",–
Cc1c(C(=O)Nc2nccs2)sc2nc(-c3cccs3)cc(C(F)(F)F)c12,active: 11.2 µM,–
Cc1ccc2c(c1)Oc1ccc([N+](=O)[O-])cc1C(=O)N2,inactive,–
COc1ccc(N(C)S(=O)(=O)c2cccc(C(=O)Nc3cc(OC)ccc3OC)c2)cc1,active: 10 µM,–
Cc1ccc(C(=O)NCC(=O)N2CCCC(C(F)(F)F)C2)s1 (stereo not given),"inconclusive [inhibitor, single point]",–
O=C1/C(=C/C=C/c2ccco2)SC(=S)N1c1ccc(O)cc1,inactive,–
Cc1c(C(=O)NC2CC2)oc2ccccc12,"inconclusive [inhibitor, single point]",–
Cc1nnc(NC(=O)C(C)Sc2nnc(-c3ccco3)n2C(C)C)s1 (stereo not given),inactive,–
Cc1cc(NC(=O)CSCC(=O)Nc2nc3ccccc3s2)no1,inactive,–
Cc1cc(NC(=O)CCC(=O)N(Cc2ccco2)C2(C(=O)NC3CCCC3)CCCCC2)no1,"inconclusive [inhibitor, single point]",–
O=S(=O)(N(Cc1ccccc1)[C@@H](CO)Cc1ccccc1)N(Cc1ccccc1)[C@@H](CO)Cc1ccccc1,inactive,–
COCCn1c(C)cc(C(=O)COC(=O)c2ccc3c(c2)NC(=O)CS3)c1C,"inconclusive [inhibitor, partial curve]",–
Cc1sc2ncnc(SCC(=O)NCC3CCCO3)c2c1C (stereo not given),"inconclusive [inhibitor, partial curve, poor fit]",–

SMILES,Potency,"activity change, negative = inhibition"
C/C=C/C(=O)N1c2ccccc2C(C)=CC1(C)C,inactive,–
CCCc1cc(C(=O)Nc2cc(Cl)ccc2O)no1,inactive,–
O=C1CSC(=S)N1N=Cc1c(O)ccc2ccccc12,"inconclusive [inhibitor, full curve, poor fit]",–
COC(=O)C1=C(C)N(c2cccc(C)c2)C(=O)/C1=C\c1cccs1,"inconclusive [inhibitor, partial curve, poor fit]",–
CN1c2ccsc2/C(=N/Nc2ccc(F)cc2)CS1(=O)=O,"inconclusive [inhibitor, partial curve]",–
Cc1nn(CC(=O)Nc2ccc3c(c2)oc2ccccc23)c(=O)c2ccccc12,"inconclusive [inhibitor, single point]",–
S=C(NCc1ccccc1)NCc1ccccn1,inactive,–
O=C(O)c1cccnc1SC1CC(=O)N(CCc2ccccc2)C1=O (stereo not given),"inconclusive [inhibitor, single point]",–
CN(C)S(=O)(=O)c1cccc(N=c2scc(-c3ccc4c(c3)NC(=O)CO4)n2CC2CCCO2)c1 (stereo not given),"inconclusive [inhibitor, single point]",–
O=C1COc2ccc(S(=O)(=O)N3CCN(c4cccc(C(F)(F)F)c4)CC3)cc2N1,"inconclusive [inhibitor, single point]",–
CN(C)C(CNC(=O)c1cc(S(=O)(=O)N(C)c2ccc(F)cc2)ccc1Cl)c1cccs1 (stereo not given),"inconclusive [inhibitor, partial curve]",–
CCc1ccc2oc(-c3cccc(N)c3)nc2c1,"inconclusive [inhibitor, single point]",–
c1ccc(-c2ccc(CN3C[C@@H]4C(c5ccccc5)C5(c6cccnc6)CC4(C5)[C@H]3c3ccccc3)cc2)cc1 (stereo not given in full),–,inactive: -1.49% [at 8.37 µM]
Cc1nn(-c2ccc([N+](=O)[O-])cc2)c2c1C(c1ccc(OC(F)F)cc1)N1C(=N2)C(=O)Nc2ccccc21 (stereo not given),active: 2 µM,–
CCCCNC(=O)C1c2ccccc2C(=O)N(c2ccc(OC)cc2)C1c1ccc(OC)cc1 (stereo not given),"inconclusive [inhibitor, partial curve]",–
COc1ccccc1OCC(=O)Nc1ccc(N2CCCCC2)cc1,inactive,–
COc1ccc(S(=O)(=O)N2CCOC23CCN(S(=O)(=O)c2cc(F)ccc2F)CC3)cc1,inactive,–
Cc1noc(C)c1C(=O)N1CCC2(CC1)Oc1ccc(F)cc1C(=O)C21CC(c2ccc(Cl)cc2)=NO1 (stereo not given),inactive,–
CCN(CC(=O)Nc1c(F)cccc1F)C(=O)C1CCN(C(=O)Nc2ccccc2)CC1,inactive,–
Nc1c(-c2ccccc2)nc(Cl)nc1-c1ccccc1,"inconclusive [inhibitor, single point]",–
CCc1c(C)nc2ncnn2c1N1CCC(C(=O)N2CCN(c3ccc(F)cc3)CC2)CC1,"inconclusive [inhibitor, single point]",–
O=[N+]([O-])c1cccc(-c2nc(Oc3ccc(Cl)cc3)c3ccccc3n2)c1,inactive,–
